Source: PubChem BioAssay AID488969 (Vanderbilt High Throughput Screening Facility, 2010)
Over roughly 110,000 compounds, “z-score” has its median near -0.1; the highest 2% begin near 2. Some of the results follow. Calls of active or inactive are those of the source.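 Rule for the calls: active = z-score in the third read window above 3 or below -3; inactive = the rest.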

target: Metabotropic glutamate receptor 8 (Rattus norvegicus) (UniProt P70579); experiment: rat mGluR8 modulators via GIRK flux, primary screen, cell-based, thallium flux, HTS (AID 488969); settings: HEK293 rat mGluR8, GIRK (G protein-gated inwardly rectifying potassium channel) thallium flux, FluoZin2; at 10 µM; stronger effect = higher value; submaximal glutamate (EC20) added with thallium
UniProt P70579, sequence (P70579 whole entry, looked up): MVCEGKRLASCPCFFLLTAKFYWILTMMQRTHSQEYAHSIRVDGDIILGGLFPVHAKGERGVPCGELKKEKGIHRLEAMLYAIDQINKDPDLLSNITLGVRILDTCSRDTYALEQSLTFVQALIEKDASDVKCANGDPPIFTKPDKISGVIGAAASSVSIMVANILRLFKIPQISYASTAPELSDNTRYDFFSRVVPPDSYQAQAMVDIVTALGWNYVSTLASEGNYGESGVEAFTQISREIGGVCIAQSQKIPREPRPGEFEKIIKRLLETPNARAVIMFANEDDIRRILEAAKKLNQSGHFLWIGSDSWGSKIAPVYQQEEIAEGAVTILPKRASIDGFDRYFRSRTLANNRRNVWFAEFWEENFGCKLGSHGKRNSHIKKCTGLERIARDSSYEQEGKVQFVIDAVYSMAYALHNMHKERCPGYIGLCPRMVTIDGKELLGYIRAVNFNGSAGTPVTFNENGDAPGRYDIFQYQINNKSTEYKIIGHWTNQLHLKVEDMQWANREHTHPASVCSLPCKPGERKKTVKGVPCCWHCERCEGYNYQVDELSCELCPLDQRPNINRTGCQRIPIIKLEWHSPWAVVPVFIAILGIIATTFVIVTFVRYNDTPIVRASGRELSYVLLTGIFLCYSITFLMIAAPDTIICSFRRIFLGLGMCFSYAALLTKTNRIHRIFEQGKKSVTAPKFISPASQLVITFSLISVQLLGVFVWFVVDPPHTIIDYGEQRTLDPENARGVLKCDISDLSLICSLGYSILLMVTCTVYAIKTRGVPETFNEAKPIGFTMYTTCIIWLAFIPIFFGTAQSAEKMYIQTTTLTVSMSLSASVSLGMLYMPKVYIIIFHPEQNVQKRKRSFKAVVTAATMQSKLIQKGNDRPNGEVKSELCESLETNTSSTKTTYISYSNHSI

Row | Compound | z-score
1 | COc1ccccc1N1CCN(C(=O)N2CCOCC2)CC1 | -0.3
2 | Cc1ccc(C(=O)OC2=CC(=O)CC(C)(C)C2)cc1 | -0.57
3 | CC(=O)Oc1ccc(C(=O)Nc2ccc3c(c2)C(=O)N(CCC(=O)O)C3=O)cc1 | -0.214
4 | COc1cc(CNn2cnnc2)ccc1OCC(=O)NC(C)(C)C | -0.0725
5 | Cc1ccc(S(=O)(=O)NCCN=C(CN2CCCC2)NS(=O)(=O)c2ccc(C)cc2)cc1 | -0.158
6 | COC(=O)c1sc(NC(=O)c2cc(-c3ccccc3)nc3ccccc23)c(C#N)c1C | 0.159
7 | Cc1c(C(=O)O)[nH]c2c1C(=O)CC(c1ccc(Cl)cc1)C2 (centres undefined) | active: 5.28
8 | O=C(N1CCOCC1)N(CCN1CCOCC1)Cc1cccc(Cl)c1 | -0.0977
9 | CCOC(=O)c1ccccc1NC(=O)CSc1nccn1C | -0.57
10 | Cn1c(=O)cc(OCC(=O)N2CCN(c3cccc(C(F)(F)F)c3)CC2)c2ccccc21 | 0.285
11 | COc1ccc(CC(=O)N2CCN=C2SC)cc1 | -0.0874
12 | CCN(CC)c1ccc(C=Nc2ccccc2)c(O)c1 | -0.215
13 | CC(C)c1nnc(SCc2ccc(CSc3nnc(C(C)C)n3N)cc2)n1N | 0.149
14 | CC(=O)c1c(C)[nH]c(C(=O)Nc2cccc(S(=O)(=O)N3CCOCC3)c2)c1C | -0.183
15 | Cc1ccc(S(=O)(=O)C(C)C(=O)c2ccc3c(c2)OCCO3)cc1 (centres undefined) | -0.172
16 | CC(=O)c1c(C)nc2cc(Cl)ccc2c1N | 0.581
17 | COc1ccc(-c2oc(NC(C)=O)c(C#N)c2-c2ccc(OC)cc2)cc1 | -0.496
18 | COc1ccc(C(c2c(C)[nH]n(-c3ccccc3)c2=O)c2c(C)[nH]n(-c3ccccc3)c2=O)cc1OC | -0.0184
19 | COc1ccc(-n2nnnc2S(=O)(=O)CC(=O)N2CCCCC2)cc1 | -0.239
20 | COc1ccc(OC)c2[nH]c(=O)c(CCNC(=O)C(C)C)cc12 | -0.183
21 | CC(=O)N1CCCc2cc(S(=O)(=O)CCC(=O)N3CCN(c4ccccc4)CC3)ccc21 | -0.0012
22 | S=C(c1ccc(-c2ccc(Cl)cc2)o1)N1CCCCC1 | -0.0402
23 | Cc1ccc(C(=O)CC2(O)C(=O)Nc3ccccc32)s1 (centres undefined) | -0.191
24 | Cc1cccc(C(=O)NCCC(=O)Nc2nc(C)c(Cc3ccc4c(c3)OCO4)s2)c1 | 0.0178
25 | CCOC(=O)CSc1nnc(CNC(=O)c2cccs2)n1-c1cccc(C)c1 | 0.166
26 | CS(=O)(=O)N(CC(=O)NCc1ccc2c(c1)OCO2)Cc1ccccc1 | -0.163
27 | Cn1c(-c2ccc(F)cc2)cnc1NCc1ccccc1 | 0.0337

Row | Compound | z-score
28 | CC(C)c1ccc(CNc2ccc(N3CCOCC3)cc2)cc1 | 0.222
29 | Cc1cccc(Nc2nc3c(c(=O)n(C)c(=O)n3C)n2Cc2ccccc2)c1 | 0.413
30 | Cc1ccc(NC(=O)C(C)Sc2nc(=O)cc(N)n2-c2ccccc2)cc1 (centres undefined) | -0.303
31 | Fc1ccc(-c2csc3ncnc(Nc4ccc(N5CCOCC5)cc4)c23)cc1 | -0.0151
32 | COc1cc(C)c(S(=O)(=O)N2CCCC2)cc1C | -0.412
33 | CCOC(=O)c1sc2nc(N3CCOCC3)c3c(c2c1N)CCC3 | -0.25
34 | O=C(CSc1nc2ccccc2o1)c1ccc2c(c1)OCCO2 | -0.0602
35 | CCc1ccc2nc(NC(=O)CCCc3cccs3)sc2c1 | -0.383
36 | CC(C)(C)c1nc[nH]c(=O)c1Br | 0.11
37 | Nc1nc(CSCc2ccccc2)nc(N2CCOCC2)n1 | -0.51
38 | CCOC(=O)c1ccc(NC(=O)c2ccc(CO)c(C(=O)NC3CCN(C(=O)OCC)CC3)c2)cc1 | 0.337
39 | CCOc1ccccc1N1CCN(Cc2ccc(OC)c(OC)c2OC)CC1 | 0.162
40 | Clc1ccc2c(Cl)c(-c3nnc(-c4ccccc4)o3)sc2c1 | 0.204
41 | CCOC(=O)C1CCN(Cc2cnc(Oc3ccc(Cl)cc3C)s2)CC1 | -0.164
42 | Cn1c(SCC(=O)Nc2ccc3nc(SCC(=O)NC4CC4)sc3c2)nnc1-c1ccccc1 | -2.37
43 | OC(c1ccccc1)c1nccn1Cc1ccccc1 (centres undefined) | -0.254
44 | Cc1occc1C(=O)Nc1cccc(C(=O)NCc2ccccc2)c1 | -0.295
45 | CC(=O)c1cccc(NC(=O)NCc2cccs2)c1 | -0.576
46 | CCC(=O)Nc1ccc(NC(=O)c2cccc(OC)c2)nc1 | 0.209
47 | O=C(N/N=C/c1ccc(OCC(=O)N2CCCCC2)cc1)c1ccccc1O | -0.287
48 | COC(=O)c1c(NC(=O)c2ccc(Br)s2)sc2c1CCC2 | -0.856
49 | CCCCNC(=O)C1CC(c2cccc([N+](=O)[O-])c2)=NO1 (centres undefined) | -0.039
50 | COc1ccc2nc(NC(=O)C3CCCN3S(=O)(=O)c3ccc(C)cc3)sc2c1 (centres undefined) | -0.923
51 | Cc1cc(C)nc(N2CCC(C(=O)NCc3cccc(C(F)(F)F)c3)CC2)n1 | -0.205
52 | O=C(CSc1nc(C2CC2)nc2ccccc12)NCc1ccc2c(c1)OCO2 | -0.21
53 | O=C(CCS(=O)NCc1ccccc1)NCc1ccccc1 (centres undefined) | active: -4.32
54 | O=C(CCN1C(=O)c2ccccc2C1=O)NNC(=O)c1ccc(Cl)cc1Cl | 0.126
